# Test results as given in publication PMC4336329 (PLoS ONE, 2015).
# Out of some 310,000 compounds screened, about 14,000 (4.5%) showed an effect of 50% or more. Effects have a minus sign here. The list shows a part of the results.
# Biological target: human ether-à-go-go-related gene (hERG) potassium channel (human, UniProt Q12809)
# Assay: primary screen, population patch clamp on CHO cells stably expressing hERG
# 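Also: peak tail current of the secondary pulse compared with the same well before compound.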
# Sequence of human ether-à-go-go-related gene (hERG) potassium channel (Q12809 whole entry, looked up): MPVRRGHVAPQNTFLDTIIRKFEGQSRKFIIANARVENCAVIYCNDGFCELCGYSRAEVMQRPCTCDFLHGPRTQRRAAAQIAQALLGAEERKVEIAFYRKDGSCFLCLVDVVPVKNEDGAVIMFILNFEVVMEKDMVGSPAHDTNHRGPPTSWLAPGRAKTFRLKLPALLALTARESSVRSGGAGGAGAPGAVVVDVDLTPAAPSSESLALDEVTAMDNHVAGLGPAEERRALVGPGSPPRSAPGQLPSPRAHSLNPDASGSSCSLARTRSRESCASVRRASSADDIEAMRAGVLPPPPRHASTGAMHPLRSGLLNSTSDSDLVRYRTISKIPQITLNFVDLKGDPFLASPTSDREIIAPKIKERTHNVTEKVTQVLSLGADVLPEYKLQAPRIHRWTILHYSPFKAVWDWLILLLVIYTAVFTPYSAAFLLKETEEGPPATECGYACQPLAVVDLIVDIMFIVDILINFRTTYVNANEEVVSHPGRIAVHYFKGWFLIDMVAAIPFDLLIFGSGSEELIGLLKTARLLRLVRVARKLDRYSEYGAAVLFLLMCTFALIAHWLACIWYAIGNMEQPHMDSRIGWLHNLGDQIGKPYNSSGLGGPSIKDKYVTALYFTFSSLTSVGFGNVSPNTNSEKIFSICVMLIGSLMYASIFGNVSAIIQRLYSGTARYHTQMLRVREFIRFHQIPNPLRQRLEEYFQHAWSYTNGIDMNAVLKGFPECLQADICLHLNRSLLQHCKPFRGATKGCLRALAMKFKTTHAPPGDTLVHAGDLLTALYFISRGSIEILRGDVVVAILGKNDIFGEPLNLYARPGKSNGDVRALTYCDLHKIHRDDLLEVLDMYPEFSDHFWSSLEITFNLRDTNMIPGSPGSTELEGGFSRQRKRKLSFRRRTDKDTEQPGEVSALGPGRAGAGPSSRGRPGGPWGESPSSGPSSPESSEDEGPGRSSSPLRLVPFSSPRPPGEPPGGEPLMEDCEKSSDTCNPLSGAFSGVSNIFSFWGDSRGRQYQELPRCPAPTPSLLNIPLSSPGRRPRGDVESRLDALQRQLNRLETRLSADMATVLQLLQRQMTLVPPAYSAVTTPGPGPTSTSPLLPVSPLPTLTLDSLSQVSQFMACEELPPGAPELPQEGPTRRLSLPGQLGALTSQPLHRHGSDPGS
row,Compound,"hERG current change (%, negative = inhibition) at 10uM [%]"
1,CCOC(=O)Nc1ccc2c(c1)N(C(=O)CCCl)c1ccccc1[S@]2=O,8.49
2,O=C(CC(=O)c1ccccc1)Nc1ccccc1C(F)(F)F,11.1
3,O=C(c1ccco1)N1CCC(c2nc3c(nnn3Cc3ccc(F)cc3)c(=O)[nH]2)CC1,-29.9
4,Cc1cc(C(=O)Nc2ccccc2N2CCCCC2)no1,-4.8
5,CCN(CC)CCNc1nc(SC)nc2sc3c(c12)CCN(C)C3,-6.12
6,O=C(Nc1ccccc1)Nc1csc2ccccc12,4.11
7,COc1ccc(C(=O)Nc2cc(C(F)(F)F)ccc2Cl)cc1OC,-8.46
8,O=C(OCc1cc([N+](=O)[O-])cc2c1OCOC2)c1ccccn1,38
9,COC(=O)c1c(NC(NC(=O)C(C)C)C(Cl)(Cl)Cl)sc2c1CCC2 (stereo not drawn),0.984
10,COc1ccc(NC(=O)c2ccco2)cc1NC(=O)c1ccccc1[N+](=O)[O-],-3.23
11,CC1=NN(C(C)C)C(=O)C1,8.62
12,COc1ccc(Cl)cc1NC(=O)CN(C)CC(=O)Nc1ccccc1C(F)(F)F,-1.19
13,O=C(C1CCN(S(=O)(=O)c2cccnc2)CC1)N1CCCCC1,1.83
14,CCN1C(=O)/C(=C\c2cccc(OC(=O)c3ccco3)c2)SC1=S,14.7
15,Cc1nc(CNS(=O)(=O)c2cc(C)c(C)cc2C)cs1,-7.31
16,Cc1ncc(CSCC(=O)Nc2cc(C(F)(F)F)ccc2Cl)c(CO)c1O,3.86
17,CC(C)COC(=O)Cc1c(O)c2ccccc2[nH]c1=O,11.6
18,O=C(CC1C(=O)NCCN1Cc1ccc(-c2ccccc2)cc1)NC1CCC1 (stereo not drawn),-7.07
19,CSc1ccc(S(=O)(=O)Nc2cccc(F)c2)cc1,-0.83
20,Cc1cc(=O)[nH]c(NN=C2CCC(C(C)(C)C)CC2)n1 (stereo not drawn),13.2
21,COc1ccc(C2=NN(C(C)=O)C(c3ccccc3)C2)cc1 (stereo not drawn),-3.38
22,O=C(OCC(=O)N(CCc1ccccc1)Cc1ccccc1)c1cccc(O)c1,52.2
23,O=C1CC(NS(=O)(=O)c2ccc3ccccc3c2)CN1c1ccccc1 (stereo not drawn),-0.798

row,Compound,"hERG current change (%, negative = inhibition) at 10uM [%]"
1,O=C(CSc1nc(=O)n(CCCN2CCOCC2)c2c1CCC2)Nc1ccc(F)cc1,-39.5
2,CN(C)C(=S)Nc1cccc(F)c1,-1.26
3,COc1ccc(-c2cc(C(=O)NCc3ccco3)c3ccccc3n2)cc1,-5.84
4,Cc1cc(C)c(C(=O)COC(=O)c2cc([N+](=O)[O-])ccc2N2CCOCC2)cc1C,-4.07
5,Cn1c(SCc2ccc(Cl)cc2)nnc1-c1ccc2nonc2c1,0.685
6,CCOc1cccc2sc(N3CCN(C(=O)c4ccc5ncsc5c4)CC3)nc12,2.18
7,CCOc1ccc(-c2cc(N)n(S(=O)(=O)c3ccc(OC)cc3)n2)cc1,10.7
8,CCOC(=O)N/N=C/c1ccc(N2CCOCC2)s1,-28
9,O=S(=O)(c1ccccc1)c1nc(-c2ccco2)oc1N1CCCCCC1,-30.6
10,O=C(COc1ccccc1)N=C1SC2CS(=O)(=O)CC2N1Cc1ccccc1 (stereo not drawn),1.81
11,C/C(=N\NC(=O)c1ccc(-c2ccccc2)cc1)c1ccco1,-19.1
12,COc1ccc(C)cc1S(=O)(=O)N(CC(=O)N1CCOCC1)Cc1ccccc1,-19.7
13,CCN(CC)c1ccc(NC(=O)CN2C(=O)CC(C)(C)S(=O)(=O)c3ccccc32)c(C)c1,-1.01
14,O=S(=O)(Nc1nc2ccccc2nc1N1CCN(c2ccccc2F)CC1)c1ccc(Cl)cc1,1.45
15,COc1cc(Cl)c(NS(=O)(=O)c2ccc(-c3ccc(=O)[nH]n3)o2)c(OC)c1,13.1
16,CCOC(=O)c1cnc2c(c(C)nn2C)c1Oc1ccccc1F,1.29
17,COc1ccc(OC)c(C(=O)CSc2nnc(Cc3cccs3)n2CCc2ccccc2)c1,-21
18,O=C(O)c1cc(S(=O)(=O)N2CCCCC2)ccc1F,-12.3
19,CC(C)(NO)/C(=N\O)c1ccccc1,23.2
20,COc1cc(C)ccc1S(=O)(=O)N1CCCCCC1,-1.64
21,O=C(CCCOc1ccccc1)N1CCCCC1,-5.84
22,O=C(O)CC1(CC(=O)NCc2cc(F)cc3c2OCOC3)CCCCC1,6.25
